PubChem BioAssay AID488969 (Vanderbilt High Throughput Screening Facility, 2010)
The full ranking holds about 110,000 compounds; the median of “z-score” is about -0.1, and the highest 2% start at about 2. This is one part of the list. The source made the active and inactive calls.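 The calls were made as follows: active = z-score in the third read window above 3 or below -3; inactive = the rest.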

target: Metabotropic glutamate receptor 8 (Rattus norvegicus) (UniProt P70579); assay: mGluR8 Gi/Go-coupled signaling modulation – cell-based, rat, thallium flux, HTS, primary screen (AID 488969); settings: HEK293 rat mGluR8, GIRK (G protein-gated inwardly rectifying potassium channel) thallium flux, FluoZin2; at 10 µM; stronger effect = higher value; submaximal glutamate (EC20) added with thallium
UniProt P70579, sequence (P70579 whole entry, looked up): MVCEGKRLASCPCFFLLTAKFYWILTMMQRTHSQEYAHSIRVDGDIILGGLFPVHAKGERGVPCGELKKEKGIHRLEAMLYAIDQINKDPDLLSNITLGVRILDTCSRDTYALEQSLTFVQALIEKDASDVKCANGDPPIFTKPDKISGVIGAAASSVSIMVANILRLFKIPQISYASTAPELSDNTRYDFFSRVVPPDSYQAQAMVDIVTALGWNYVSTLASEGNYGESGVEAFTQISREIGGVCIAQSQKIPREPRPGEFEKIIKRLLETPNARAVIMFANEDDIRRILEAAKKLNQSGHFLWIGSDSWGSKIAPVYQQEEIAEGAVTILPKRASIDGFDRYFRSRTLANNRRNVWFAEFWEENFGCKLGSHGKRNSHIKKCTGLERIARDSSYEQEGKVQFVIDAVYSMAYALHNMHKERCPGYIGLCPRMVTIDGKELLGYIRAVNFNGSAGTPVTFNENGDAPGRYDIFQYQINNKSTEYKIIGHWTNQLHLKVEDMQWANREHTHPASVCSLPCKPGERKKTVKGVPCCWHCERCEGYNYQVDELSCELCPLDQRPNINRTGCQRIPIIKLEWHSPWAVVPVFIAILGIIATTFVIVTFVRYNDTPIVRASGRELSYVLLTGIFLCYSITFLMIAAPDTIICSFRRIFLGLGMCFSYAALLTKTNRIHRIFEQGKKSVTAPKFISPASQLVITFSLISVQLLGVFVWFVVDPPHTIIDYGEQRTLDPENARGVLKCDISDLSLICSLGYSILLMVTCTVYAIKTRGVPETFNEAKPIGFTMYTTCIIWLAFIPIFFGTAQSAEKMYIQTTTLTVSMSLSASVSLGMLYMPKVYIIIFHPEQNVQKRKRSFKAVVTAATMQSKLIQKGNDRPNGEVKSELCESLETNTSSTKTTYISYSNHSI

Structure (SMILES) | z-score
COc1cc(/C=N/NC(=O)c2ccncc2)ccc1OC(=O)c1ccc([N+](=O)[O-])cc1 | -0.108
O=C(Nc1ccc(/C=C/c2nc3ccccc3o2)cc1)c1ccc(F)cc1 | -0.316
O=C(c1ccc2nc(N3CCOCC3)sc2c1)N1CCN(C(=O)c2ccco2)CC1 | -0.0384
Cc1ccc(CNC(=O)C2CCCN(S(=O)(=O)c3cccnc3)C2)cc1 (stereo unspecified) | -0.223
CCOC(=O)c1[nH]c(=O)[nH]c1COC(=O)c1cc2ccccc2o1 | -0.246
CN1CCN(S(=O)(=O)c2ccc(NC(=O)c3cccc(S(=O)(=O)N4CCCC4)c3)cc2)CC1 | 0.169
Clc1cc(Br)ccc1OCCOCCN1CCOCC1 | -1.2
O=C(Nn1c(-c2ccc(Br)cc2)nc2ccccc2c1=O)c1ccc([N+](=O)[O-])cc1 | 0.087
Cc1ccc(S(=O)(=O)NCC(=O)N2CCCC2)cc1 | -0.217
Cc1ccnc(N2CCC(C(=O)NNC(=O)COc3cccc4ccccc34)CC2)n1 | 0.336
C=CCc1ccc(OCC(O)CN2CCCCC2)c(OC)c1 (stereo unspecified) | 0.317
O=C(NNC1=C(C(=O)C(F)(F)F)CCC1)c1cccc(Cl)c1 | 0.3
Cc1ccc(OCC(=O)N/N=C/c2ccc([N+](=O)[O-])o2)cc1 | 0.0523
Cc1ccc(N2C(=O)S/C(=C/c3cn(C)c4ccccc34)C2=O)cc1 | 1.03
CCc1cc2c(NCCC(=O)O)ncnc2s1 | -1.23
COc1ccc(/C=N/NC(N)=S)cc1OC(=O)c1cccc2ccccc12 | -0.237
Cc1ccc(S(=O)(=O)N(C)CC(=O)N2CCCc3ccccc32)cc1 | -0.119
Cc1cc(C)n2nc(CC(=O)NCc3ccccc3Cl)nc2n1 | 0.17
COc1ccccc1CNC(=O)c1ccc(S(=O)(=O)N(C)C)cc1 | 0.206

Structure (SMILES) | z-score
O=C1O/C(=C\c2ccccc2)c2ccccc21 | 0.00856
CC1(C)CC(=O)C=C(NCc2ccc(Cl)c(Cl)c2)C1 | -0.131
Cc1ccc(-c2cc(C(=O)N3CCN(c4ccc(F)cc4)CC3)c3ccccc3n2)o1 | -0.216
CCC(=O)Nc1cc2nn(-c3ccccc3)nc2cc1Cl | 0.0874
CCCCN1C(=O)NC2NC(=O)NC21 (stereo unspecified) | -0.0294
COc1cc(OC)cc(C(=O)Nc2ccc(S(=O)(=O)Nc3cc(C)nc(C)n3)cc2)c1 | -0.251
O=C(NC(=S)NNS(=O)(=O)c1ccccc1)c1ccccc1[N+](=O)[O-] | -0.154
O=C1c2ccccc2C(=O)C12OC(c1ccccc1)C1(C(=O)c3ccccc3C1=O)C2c1cccc([N+](=O)[O-])c1 (stereo unspecified) | -0.381
CCOC(=O)c1sc(NC(=O)c2noc3c2CCCC3)c(C(=O)OCC)c1C | 0.444
CC(C)c1ccccc1OCC(=O)NC1CCCc2ccccc21 (stereo unspecified) | -0.323
CC(C)Oc1ccc(CC2CC(=O)NC2=O)cc1 (stereo unspecified) | -0.119
c1ccc2c(N3CCCCCC3)nc(-c3ccncc3)nc2c1 | active: -4.67
CCN(CC)C(=O)C1CCCN(C/C(C)=C/c2ccccc2)C1 (stereo unspecified) | -0.226
Cn1cnc([N+](=O)[O-])c1NC(C)(C)C | 0.469
OC1(c2ccc(F)cc2)CN(c2ccccc2)C2=[N+]1CCS2 (stereo unspecified) | -0.591
Cc1ccc(C)c2[nH]c(=O)c(C(c3nnnn3C(C)(C)C)N3CC=C(c4ccc(F)cc4)CC3)cc12 (stereo unspecified) | -0.208
CCCCCCn1c(C)nc2c(c1=O)c1nc3ccccc3nc1n2/N=C/c1ccco1 | 0.218
O=C(NCCN1CCCC1)C1(S(=O)(=O)c2ccc(Cl)cc2)CC1 | 0.00974
COC(=O)/C=C/C(=O)N1CCN(c2cccc(Cl)c2)CC1 | 0.228

Structure (SMILES) | z-score
Cc1c(CNCc2cccs2)c(C(=O)O)c(C)n1Cc1ccccc1 | -0.442
O=C(Nc1cccc(-c2cn3ccccc3n2)c1)c1cnccn1 | 0.132
Cc1c(C(=O)Nc2nc3ccccc3[nH]2)cccc1[N+](=O)[O-] | 0.835
CC(=O)Oc1c(C)cc(O)c2ccccc12 | -0.327
CCCCCSc1nnc(C)c(=O)[nH]1 | -0.099
COc1cccc(-n2c(CN3CCN(c4cccc(C)c4)C(C)C3)nc3ccc([N+](=O)[O-])cc3c2=O)c1 (stereo unspecified) | -0.14
CC(C)c1nnc(NC(=O)CCC(=O)Nc2ccc(F)cc2)s1 | 0.0341
Cc1ccc(C(=O)Nc2ccc(F)cc2F)o1 | -0.0232
O=C(Cc1nc(-c2ccc([N+](=O)[O-])cc2)cs1)Nc1ccccc1 | -0.161
OCCNCCCCOc1ccc(OCc2ccccc2)cc1 | 0.352
Cc1cc2c(cc1C)-c1nnc(-c3ccc4ccccc4n3)n1C(C)(C)C2 | -0.849
O=C(c1ccccc1)N1CCN(Cc2ccccc2)CC1 | -0.853
CCOc1ccc(/C=C2\SC(=S)N(Nc3ccccc3)C2=O)cc1OC | 1.05
COc1ccc(OC2C(=O)N(Cc3ccc4c(c3)OCO4)C2c2cccs2)cc1 (stereo unspecified) | -0.163
CCOC(=O)c1ccc(NC(=O)N2CC(C)OC(C)C2)cc1 (stereo unspecified) | -0.356
Cn1sc(NC(=O)c2cccc(Cl)c2)nc1=O | 0.875
O=C(NCc1ccc2c(c1)OCO2)C1CCN(S(=O)(=O)c2cccs2)CC1 | -0.274
COc1cc(/C=N/NC(=O)CCc2n[nH]c(=O)[nH]c2=O)ccc1O | 0.337
